# Inconclusive results, whose numbers are uncertain, are shown with a selection of clear calls. For some of these results: Potencies of inconclusive entries are left out as doubtful fits. The source made the active and inactive calls. Unless noted, the call rests on the fitted dose curve; in most records, active means well fitted curve in the direction sought with a large enough effect; inconclusive means small, poorly fitted or top-dose-only effect, or another doubt; inactive means no such curve, though single readings can be large; an effect the other way counts as inactive or inconclusive.
# Legend:
# [1] = qHTS of pediatric cancer cell lines to identify multiple opportunities for drug repurposing: Primary screen for SK-N-MC cells (AID 1347093); conditions: SK-N-MC viability, CellTiter-Glo luminescence, 48 h; activity change, negative = cytotoxic: at 46 µM (top of the series); further: potency means the concentration at half of the fitted maximal effect
# In short: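 Metabolically active cells were quantified by ATP-dependent luminescence (CellTiter-Glo, 15 min at room temperature) following 48 h treatment. Cells had been plated at 500-1,000 per well and settled for 5 h beforehand.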
# [2] = qHTS of pediatric cancer cell lines to identify multiple opportunities for drug repurposing: Primary screen for NB-EBc1 cells (AID 1347095)
# In short: (§1)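 Plated cells (500-1,000 per well, growth media) were allowed to settle for 5 hours, treated with compound dilutions for 48 hours, then lysed with CellTiter-Glo for 15 min at room temperature before luminescence reading.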
# [3] = biological target: Cytochrome P450 2D6 (Homo sapiens) (UniProt P10635); assay: Cytochrome P450 family 2 subfamily D member 6 (CYP2D6) small molecule antagonists: luciferase biochemical (cell-free) qHTS assay (AID 1645840; active means well fitted curve in the direction sought with a large enough effect in the repeat runs; inconclusive means weak or mixed curves; inactive means no such curve, though single readings can be large; an effect the other way counts as inactive or inconclusive; further: potency means the concentration at half of the fitted maximal effect; nearly all actives have a fitted effect of over 55% in size)
# UniProt P10635, sequence (P10635 whole entry, looked up): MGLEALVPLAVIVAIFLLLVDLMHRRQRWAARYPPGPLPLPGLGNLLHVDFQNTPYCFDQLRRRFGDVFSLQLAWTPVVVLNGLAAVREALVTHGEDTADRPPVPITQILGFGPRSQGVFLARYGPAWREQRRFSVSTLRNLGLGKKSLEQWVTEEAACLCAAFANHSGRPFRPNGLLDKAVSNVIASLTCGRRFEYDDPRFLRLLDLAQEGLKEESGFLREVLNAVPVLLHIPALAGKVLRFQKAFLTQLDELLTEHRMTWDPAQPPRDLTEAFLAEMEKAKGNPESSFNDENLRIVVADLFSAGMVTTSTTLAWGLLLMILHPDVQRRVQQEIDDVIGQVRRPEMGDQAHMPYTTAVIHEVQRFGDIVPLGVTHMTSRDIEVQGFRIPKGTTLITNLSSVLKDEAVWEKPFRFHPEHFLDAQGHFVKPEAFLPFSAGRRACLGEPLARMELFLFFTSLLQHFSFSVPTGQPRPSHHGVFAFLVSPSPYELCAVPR
# In short: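 P450-Glo CYP2D6 system: proluciferin substrate converted by enzyme to luciferin, read by luminescence proportional to activity. Enzyme-substrate mix with compound 10 min at room temperature, then NADPH regeneration 1 h before detection reagent.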
# [4] = Primary qHTS for inhibitors of nuclear receptor binding SET domain protein 2 (NSD2) in an isogenic RCH-ACV NSD2 p.E1099K mutant (9B) (AID 1645876); conditions: activity change, negative = viability loss: at 44.9 µM (top of the series) unless noted; further: nearly all actives have a fitted effect of over 70% in size; further: potency means the concentration at half of the fitted maximal effect
# MKL-1 = assay: qHTS assay to identify novel small-molecules to repurpose for Merkel cell carcinoma treatment (AID 1296009); conditions: MCC and control cell lines, CellTiter-Glo viability, 72 h; series mostly up to 46 µM; further: nearly all actives have a fitted effect of over 60% in size; further: potency means the concentration at half of the fitted maximal effect
# In short: (§2)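 Dose-response viability screen; 72 hr exposure at 37 degree celsius; CellTiter-Glo added, 10 min room temperature, luminescence read; RLUs scaled between no-cell and DMSO wells.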
# WaGa = assay: as above; conditions: MCC and control cell lines, CellTiter-Glo viability, 72 h; series mostly up to 46 µM
# In short: as §2
# [5] = Drug repurposing screens with cells derived from glioblastoma tumor samples (AID 1345199); conditions: GBM patient neurospheres viability, ATP luminescence, 48 h; Potency: tumour line A unless noted; series mostly up to 46 µM; further: nearly all actives have a fitted effect of over 40% in size; further: potency means the concentration at half of the fitted maximal effect
# In short: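 Primary testing used CD133+ neurospheres from four GBM patients, seven concentrations, 48 h exposure and ATP-based viability; confirmation added three slower-growing patient lines.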
# [6] = qHTS of pediatric cancer cell lines to identify multiple opportunities for drug repurposing: Primary screen for OHS-50 cells (AID 1347103); conditions: OHS-50 osteosarcoma viability, CellTiter-Glo luminescence, 48 h; activity change, negative = cytotoxic: at 57.3 µM (top of the series); further: nearly all actives have a fitted effect of over 40% in size; further: potency means the concentration at half of the fitted maximal effect
# In short: (§3)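 Cells (500-1,000/well) rested 5 h, then received compounds for 48 h; metabolically active cells were measured by CellTiter-Glo luminescence. Final concentrations spanned up to 46 µM (MIPE, 11-point) or 0.59 nM-46 µM (NPC, 8-point) in primary screens, 11-point in follow-ups.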
# [7] = Primary qHTS for inhibitors of nuclear receptor binding SET domain protein 2 (NSD2) in an RCH-ACV wild type WT cells (2C) (AID 1645877); conditions: activity change, negative = cell killing: at 44.9 µM (top of the series) unless noted; further: nearly all actives have a fitted effect of over 70% in size; further: potency means the concentration at half of the fitted maximal effect
# MKL-2 = assay: qHTS assay to identify novel small-molecules to repurpose for Merkel cell carcinoma treatment (AID 1296009); conditions: MCC and control cell lines, CellTiter-Glo viability, 72 h; series mostly up to 46 µM; further: nearly all actives have a fitted effect of over 60% in size; further: potency means the concentration at half of the fitted maximal effect
# In short: as §2
# UISO = assay: as above; conditions: MCC and control cell lines, CellTiter-Glo viability, 72 h; series mostly up to 46 µM
# In short: as §2
# [8] = biological target: Cytochrome P450 2C9 (Homo sapiens) (UniProt P11712); assay: Cytochrome P450 family 2 subfamily C member 9 (CYP2C9) small molecule antagonists: luciferase biochemical (cell-free) qHTS assay (AID 1645842; active means well fitted curve in the direction sought with a large enough effect in the repeat runs; inconclusive means weak or mixed curves; inactive means no such curve, though single readings can be large; an effect the other way counts as inactive or inconclusive; further: nearly all actives have a fitted effect of over 55% in size; further: potency means the concentration at half of the fitted maximal effect)
# UniProt P11712, sequence (P11712 whole entry, looked up): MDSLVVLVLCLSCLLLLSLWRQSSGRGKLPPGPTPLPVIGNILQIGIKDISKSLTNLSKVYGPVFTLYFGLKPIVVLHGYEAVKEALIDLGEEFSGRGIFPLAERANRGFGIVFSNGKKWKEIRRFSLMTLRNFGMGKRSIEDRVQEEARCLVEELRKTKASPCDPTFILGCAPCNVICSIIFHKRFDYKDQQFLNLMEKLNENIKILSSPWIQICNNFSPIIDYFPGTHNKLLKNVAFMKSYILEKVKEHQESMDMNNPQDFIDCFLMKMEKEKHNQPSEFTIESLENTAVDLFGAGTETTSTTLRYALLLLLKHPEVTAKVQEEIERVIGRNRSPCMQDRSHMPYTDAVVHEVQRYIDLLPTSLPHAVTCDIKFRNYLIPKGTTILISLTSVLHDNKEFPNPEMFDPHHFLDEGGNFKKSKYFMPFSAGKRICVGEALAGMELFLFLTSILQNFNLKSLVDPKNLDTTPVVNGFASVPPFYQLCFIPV
# In short: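 P450-Glo CYP2C9 system: proluciferin substrate with enzyme in mix containing 0.4% BSA, 10 min at room temperature, then NADPH regeneration solution added and incubated 1 h at 37C. Detection reagent stopped reaction; luminescence read after 20 min as RLU.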
# MCC-13 = assay: qHTS assay to identify novel small-molecules to repurpose for Merkel cell carcinoma treatment (AID 1296009); conditions: MCC and control cell lines, CellTiter-Glo viability, 72 h; series mostly up to 46 µM; further: nearly all actives have a fitted effect of over 60% in size; further: potency means the concentration at half of the fitted maximal effect
# In short: as §2
# [9] = qHTS of pediatric cancer cell lines to identify multiple opportunities for drug repurposing: Primary screen for A673 cells (AID 1347092); conditions: A673 Ewing sarcoma viability, CellTiter-Glo ATP luminescence, 48 h; activity change, negative = cytotoxic: at 46 µM (top of the series); further: nearly all actives have a fitted effect of over 45% in size
# In short: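 A673 cells (500-1,000 cells/well in growth media) were pre-incubated 5 h at 37 degrees C, then exposed to compounds for 48 h. Viability was read as CellTiter-Glo luminescence; concentration-response curves came directly from the primary screen.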
# [10] = qHTS of pediatric cancer cell lines to identify multiple opportunities for drug repurposing: Primary screen for SK-N-SH cells (AID 1347098);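 further: DMSO served as neutral control and bortezomib at 2.3 µM as positive control; nearly all actives have a fitted effect of over 65% in size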
# In short: as §3
# [11] = Primary qHTS for small molecule stabilizers of the endoplasmic reticulum resident proteome: Secreted ER Calcium Modulated Protein (SERCaMP) assay (AID 1508630); conditions: SH-SY5Y GLuc-SERCaMP (Gaussia luciferase released on ER calcium loss) secretion, thapsigargin, luminescence; series mostly up to 38.4 µM; further: potency means the concentration at half of the fitted maximal effect
# In short: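 The SH-SY5Y reporter protocol was run at 3 concentrations up to 38.3 uM (primary) or 11 concentrations (follow-up): 16 h compound, 100 nM thapsigargin for 4 h, then extracellular luciferase luminescence.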
# SKOV3 = assay: Primary qHTS to identify gynecologic anti-cancer compounds using libraries of approved drugs and bioactive compounds (AID 1345084); conditions: Gynecologic cancer cell panel viability, ATPlite luminescence, 48 h; series mostly up to 57.5 µM; further: nearly all actives have a fitted effect of over 55% in size; further: potency means the concentration at half of the fitted maximal effect
# In short: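 Cells, 1,000 per well, plated 16 h, then exposed 48 h at 37 C to compounds. Viability by ATPlite luminescence after 15 min at room temperature.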
# [12] = qHTS of pediatric cancer cell lines to identify multiple opportunities for drug repurposing: Primary screen for BT-12 cells (AID 1347101); further: nearly all actives have a fitted effect of over 25% in size; further: potency means the concentration at half of the fitted maximal effect
# In short: as §3
# [13] = qHTS of pediatric cancer cell lines to identify multiple opportunities for drug repurposing: Primary screen for Saos-2 cells (AID 1347097); conditions: Saos-2 viability, CellTiter-Glo ATP luminescence, 48 h; activity change, negative = cytotoxic: at 46 µM (top of the series); further: nearly all actives have a fitted effect of over 40% in size; further: potency means the concentration at half of the fitted maximal effect
# In short: as §1
# [14] = A High-Content qHTS Against Drug Library for the Identification of Small Molecules that Inhibit DYT1 Early Onset Primary Dystonia-Associated Cell Pathology (AID 1645839; calls by dose curve; further: potency means the concentration at half of the fitted maximal effect)
# In short: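 Cells were seeded and left for 24 h, then dosed with compound alongside tetracycline induction of mutant EGFP-TorsinA. They were incubated for 48 h, fixed in 4% paraformaldehyde, permeabilized and imaged for mislocalization (%pathology) and cell count.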
# Tags describe the fitted curve by direction and shape.
smiles,measurement,setting,value
CN(C)CCOC(=O)C(c1ccccc1)C1(O)CCCC1 (stereo not given),Potency,[1],inactive
same,Potency,[2],inactive
same,Potency,[3],"inconclusive [inhibitor, partial curve, poor fit]"
same,Potency,[4],inactive
same,Potency,MKL-1,"inconclusive [inhibitor, partial curve]"
same,Potency,WaGa,"inconclusive [inhibitor, single point]"
same,Potency,[5],"inconclusive [inhibitor, full curve]"
O=C(O)Cc1ccc(OCCNC[C@H](O)c2ccccc2)cc1,Potency,[6],inactive
same,Potency,[4],"inconclusive [inhibitor, single point]"
same,Potency,[7],"inconclusive [inhibitor, partial curve, poor fit]"
same,Potency,MKL-1,"inconclusive [inhibitor, single point]"
same,Potency,MKL-2,"inconclusive [inhibitor, single point]"
same,Potency,UISO,"inconclusive [inhibitor, single point]"
same,Potency,WaGa,"inconclusive [inhibitor, single point]"
CNC[C@H](O)[C@@H](O)[C@H](O)[C@H](O)CO,Potency,[1],inactive
same,Potency,[8],inactive
same,Potency,[4],"inconclusive [inhibitor, single point]"
same,Potency,[7],"inconclusive [inhibitor, single point]"
same,Potency,MCC-13,inactive
C[C@H]1C[C@H](O)c2ccsc2S1(=O)=O,Potency,[9],inactive
same,Potency,[2],inactive
same,Potency,[10],inactive
same,Potency,[11],"inconclusive [inhibitor, partial curve, poor fit]"
same,Potency,[8],inactive
same,Potency,[4],"inconclusive [inhibitor, single point]"
same,Potency,MCC-13,inactive
same,Potency,SKOV3,"inconclusive [cytotoxic, single point]"
CN(C)CCOC(=O)COc1ccc(Cl)cc1,Potency,[9],inactive
same,Potency,[2],inactive
same,Potency,[10],inactive
same,Potency,[12],inactive
same,Potency,[11],inactive
same,Potency,[3],"inconclusive [inhibitor, single point]"
same,Potency,MCC-13,inactive
same,Potency,SKOV3,"inconclusive [cytotoxic, single point]"
same,Potency,[5],"inconclusive [inhibitor, partial curve, poor fit]"
CCOC(=O)C(=O)CCc1ccccc1,Potency,[1],inactive
same,Potency,[2],inactive
same,Potency,[3],"inconclusive [inhibitor, single point]"
same,Potency,[8],"inconclusive [inhibitor, partial curve]"
same,Potency,MCC-13,"inconclusive [inhibitor, single point]"
CCCC(=O)O[C@]1(C(=O)COC(=O)CC)CC[C@H]2[C@@H]3CCC4=CC(=O)CC[C@]4(C)[C@H]3[C@@H](O)C[C@@]21C,Potency,[10],inactive
same,Potency,[8],inactive
same,Potency,[4],inactive
same,Potency,[7],"inconclusive [inhibitor, full curve]"
same,Potency,MKL-1,inactive
same,Potency,UISO,inactive
same,Potency,[5],inactive
C[C@]12CC[C@@H]3c4ccc(O)cc4CC[C@H]3[C@@H]1CCC2=O,Potency,[13],"inconclusive [cytotoxic, partial curve]"
same,Potency,[12],"inconclusive [cytotoxic, partial curve, poor fit]"
same,Potency,[6],"inconclusive [cytotoxic, single point]"
same,Potency,[4],"inconclusive [inhibitor, partial curve]"
same,Potency,[7],"inconclusive [inhibitor, partial curve]"
same,Potency,MKL-1,inactive
same,Potency,UISO,inactive
same,Potency,[5],"inconclusive [inhibitor, partial curve]"
CO[C@@]1(NC(=O)CSCC#N)C(=O)N2C(C(=O)O)=C(CSc3nnnn3C)CS[C@@H]21,Potency,[1],"inconclusive [cytotoxic, full curve, poor fit]"
same,Potency,[13],inactive
same,Potency,[10],inactive
same,Potency,[6],inactive
same,Potency,[7],inactive
same,Potency,MKL-2,"inconclusive [inhibitor, full curve, poor fit]"
same,Potency,WaGa,"inconclusive [inhibitor, single point]"
same,Potency,[5],"inconclusive [inhibitor, single point] [tumour line C]"
c1ccc(CC2=NCCN2)cc1,Potency,[1],"inconclusive [cytotoxic, full curve, poor fit]"
same,Potency,[14],"inconclusive [inhibitor, single point]"
same,Potency,MKL-2,"inconclusive [inhibitor, partial curve]"
same,Potency,WaGa,"inconclusive [inhibitor, single point]"
same,Potency,SKOV3,inactive
same,Potency,[5],"inconclusive [inhibitor, partial curve, poor fit]"

# — PubChem BioAssay (NCATS)
